# Test results: the supplement of paper PMC9174493
# The other results are listed elsewhere or left out. Single values of this set are uncertain. Values with irradiation are relative to irradiated vehicle.
# How the values were obtained:
# [1] = test system: A549-Dual; test: NF-kB reporter (SEAP) activity, viability-corrected, relative to vehicle (fold change vs vehicle); higher = more activation of STING-IRF / NF-kB immune response reporter; conditions: 10 µM
# [2] = test system: A549-Dual; test: ISRE reporter (Lucia luciferase) activity, viability-corrected, relative to vehicle (fold change vs vehicle); higher = more activation of STING-IRF / NF-kB immune response reporter; conditions: 10 µM
# 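Wherever NF-kB reporter (SEAP) activity, viability-corrected, relative to vehicle is given: viability correction based on the alamar blue assay, with concentrations leaving 10% survival or less dropped.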
SMILES,NF-kB reporter ([1]; irradiation: 8 Gy/4 fr),NF-kB reporter ([1]; irradiation: none),ISRE reporter ([2]; irradiation: 8 Gy/4 fr),ISRE reporter ([2]; irradiation: none)
N=C(N)NCCC[C@H](N)C(=O)O [L-arginine],1.3,0.948,1.34,1.06
O=C([O-])C(O)Cc1ccc(O)c(O)c1.[Na+] (stereo unspecified) [Sodium Danshensu],1.41,1.13,1.69,1.08
CC1OC(OC2C(O)CC(OC3C(O)CC(OC4CCC5(C)C(CCC6C5CC(O)C5(C)C(C7=CC(=O)OC7)CCC65O)C4)OC3C)OC2C)CC(O)C1O (stereo unspecified) [Digoxin],1.04,1.81,0.0989,0.188
O=C(O)c1cc(=O)c2ccccc2o1 [Chromocarb],1.4,0.737,1.38,0.78
O=C(CCCN1CCC(O)(c2ccc(Cl)cc2)CC1)c1ccc(F)cc1 [Haloperidol],0.757,0.92,0.831,0.921
CCCCCCCCCCCC(CC1OC(=O)C1CCCCCC)OC(=O)C(CC(C)C)NC=O (stereo unspecified) [Orlistat],0.843,0.666,0.667,1.31
CCC1OC(=O)C(C)C(OC2CC(C)(OC)C(O)C(C)O2)C(C)C(OC2OC(C)CC(N(C)C)C2O)C(C)(O)CC(C)CNC(C)C(O)C1(C)O (stereo unspecified) [Azathramycin],0.712,0.92,0.725,0.78
CCOC(=O)Nc1ccc(NCc2ccc(F)cc2)nc1N.O=C(O)/C=C/C(=O)O [Flupirtine maleate],0.729,0.906,0.653,0.726
CN(C)CC1CCn2cc(c3ccccc32)C2=C(C(=O)NC2=O)c2cn(c3ccccc23)CCO1.Cl (stereo unspecified),0.756,0.67,0.413,0.366
NC(C=O)C(O)C(O)C(O)CO (stereo unspecified) [Glucosamine],0.611,0.559,0.625,0.499
C#CCC(Cc1cnc2nc(N)nc(N)c2n1)c1ccc(C(=O)NC(CCC(=O)O)C(=O)O)cc1 (stereo unspecified) [Pralatrexate],0.722,2.1,0.282,1.75
CC(C)NC(=N)NC(=N)Nc1ccc(Cl)cc1 [Proguanil],0.647,0.928,0.607,0.818
CO/N=C(\C(=O)NC1C(=O)N2C(C(=O)O)=C(CSc3nnnn3C)CSC12)c1csc(N)n1.CO/N=C(\C(=O)NC1C(=O)N2C(C(=O)O)=C(CSc3nnnn3C)CSC12)c1csc(N)n1.Cl (stereo unspecified) [Cefmenoxime hydrochloride],0.839,0.907,0.877,0.773
CC(C)(C)NCC(O)COc1nsnc1N1CCOCC1.O=C(O)/C=C\C(=O)O (stereo unspecified) [Timolol Maleate],0.669,1.13,0.663,0.716
O=C(O)[C@@H]1CCCN1 [L-Proline],1.44,0.857,1.26,0.796
Clc1ccc2nsnc2c1NC1=NCCN1 [Tizanidine],0.831,1.24,0.653,0.621
CCn1cc(C(=O)O)c(=O)c2cc(F)c(N3CCNC(C)C3)c(F)c21.Cl (stereo unspecified) [Lomefloxacin HCl],1.03,0.914,0.936,0.819
CC1=CCC2CC1C2(C)C [(1S)-(-)-α-Pinene],0.903,0.786,0.793,0.566
NS(=O)(=O)Cc1noc2ccccc12 [Zonisamide],0.766,0.7,0.769,0.62
CC(CCc1ccc(O)cc1)NCC(O)c1ccc(O)cc1.Cl (stereo unspecified) [Ractopamine HCl],1.62,1.01,1.61,0.898
Cc1ccc(/C(=C\CN2CCCC2)c2cccc(/C=C/C(=O)O)n2)cc1 [Acrivastine],0.98,1.17,0.99,1.03
CC1(Cn2ccnn2)C(C(=O)O)N2C(=O)CC2S1(=O)=O (stereo unspecified) [Tazobactam],0.954,0.879,1.11,0.748
NCC1OC(OC2C(CO)OC(OC3C(O)C(N)CC(N)C3OC3OC(CN)C(O)C(O)C3N)C2O)C(N)C(O)C1O.O=S(=O)(O)O (stereo unspecified) [Neomycin sulfate],0.931,0.998,0.847,0.999

SMILES,NF-kB reporter ([1]; irradiation: 8 Gy/4 fr),NF-kB reporter ([1]; irradiation: none),ISRE reporter ([2]; irradiation: 8 Gy/4 fr),ISRE reporter ([2]; irradiation: none)
CN1CC(=O)N2C(Cc3c([nH]c4ccccc34)C2c2ccc3c(c2)OCO3)C1=O (stereo unspecified) [Tadalafil],0.72,1.23,0.941,1.54
NCCS(=O)(=O)O [Taurine],1.13,0.856,0.964,0.673
Cc1onc(-c2ccccc2)c1C(=O)NC1C(=O)N2C1SC(C)(C)C2C(=O)[O-].O.[Na+] (stereo unspecified) [Oxacillin sodium monohydrate],0.993,0.976,0.892,1.04
CO/N=C(\C(=O)NC1C(=O)N2C(C(=O)O)=CCSC12)c1csc(N)n1 (stereo unspecified) [Ceftizoxime],0.926,0.908,0.983,0.741
CC(C)(C)NCC(O)c1cc(O)cc(O)c1.CC(C)(C)NCC(O)c1cc(O)cc(O)c1.O=S(=O)(O)O (stereo unspecified) [Terbutaline Sulfate],1.05,1.44,0.984,0.83
COc1cc(NS(C)(=O)=O)ccc1Nc1c2ccccc2nc2ccccc12.Cl [Amsacrine hydrochloride],5.99,8.15,2.18,9.19
CCOc1nc2cccc(C(=O)OC(C)OC(=O)OC3CCCCC3)c2n1Cc1ccc(-c2ccccc2-c2nnn[nH]2)cc1 (stereo unspecified) [Candesartan Cilexetil],0.489,0.509,0.574,0.75
O=C([O-])C1=C(CSc2nnnn2CS(=O)(=O)[O-])CSC2C(NC(=O)C(O)c3ccccc3)C(=O)N12.[Na+].[Na+] (stereo unspecified) [Cefonicid sodium],0.773,0.9,0.845,0.767
COc1cc2c(cc1OC)CC(=O)N(CCCN(C)CC1Cc3cc(OC)c(OC)cc31)CC2.Cl (stereo unspecified) [Ivabradine HCl],0.625,0.832,0.736,0.862
Nc1ccn(CC(CO)OCP(=O)(O)O)c(=O)n1 (stereo unspecified) [Cidofovir],0.813,0.889,0.609,0.915
Cc1occc(=O)c1O [Maltol],0.89,0.855,1.01,0.896
CNC(CC(C)C)C(=O)NC1C(=O)NC(CC(N)=O)C(=O)NC2C(=O)NC3C(=O)NC(C(=O)NC(C(=O)O)c4cc(O)cc(O)c4-c4cc3ccc4O)C(O)c3ccc(c(Cl)c3)Oc3cc2cc(c3OC2OC(CO)C(O)C(O)C2OC2CC(C)(N)C(O)C(C)O2)Oc2ccc(cc2Cl)C1O.Cl (stereo unspecified) [Vancomycin HCl],0.887,0.968,0.859,1.06
CCCCCCCCOC(=O)c1cc(O)c(O)c(O)c1 [Octyl gallate],0.524,0.956,0.0604,0.186
CC(=O)OCC[N+](C)(C)C.[Cl-] [Acetylcholine Chloride],1.02,1.03,0.908,0.632
CCC(=O)[N]([Na])S(=O)(=O)c1ccc(-c2c(-c3ccccc3)noc2C)cc1 [Parecoxib Sodium],0.678,1.08,0.611,0.762
CC(=O)C1CCC2C3CC=C4CC(O)CCC4(C)C3CCC12C (stereo unspecified) [Pregnenolone],0.787,0.838,0.786,0.694
COC(=O)N(C)c1c(N)nc(-c2nn(Cc3ccccc3F)c3ncccc23)nc1N [Riociguat (BAY 63-2521)],0.649,1.19,0.568,0.777
O=C1C2C3CCC(C3)C2C(=O)N1CC1CCCCC1CN1CCN(c2nsc3ccccc23)CC1 (stereo unspecified) [lurasidone],0.714,0.81,0.803,0.731
CCN1C(=O)C=CC1=O [N-Ethylmaleimide (NEM)],0.971,1.04,0.771,0.581
CC(O)C(CO)NC(=O)C1CSSCC(NC(=O)C(N)Cc2ccccc2)C(=O)NC(Cc2ccccc2)C(=O)NC(Cc2c[nH]c3ccccc23)C(=O)NC(CCCCN)C(=O)NC(C(C)O)C(=O)N1 (stereo unspecified) [Octreotide Acetate],1.12,0.655,1.13,0.71
CC(=O)OC/C=C(C)/C=C/C=C(C)/C=C/C1=C(C)CCCC1(C)C [Vitamin A Acetate],0.84,0.809,0.747,0.62
CCN(CC)Cc1cc(Nc2ccnc3cc(Cl)ccc23)ccc1O [Amodiaquine],0.792,0.841,1.03,1.32
Cc1ccc(C(=O)C(C)CN2CCCCC2)cc1.Cl (stereo unspecified) [Tolperisone HCl],1.04,1.38,1.03,1.09

SMILES,NF-kB reporter ([1]; irradiation: 8 Gy/4 fr),NF-kB reporter ([1]; irradiation: none),ISRE reporter ([2]; irradiation: 8 Gy/4 fr),ISRE reporter ([2]; irradiation: none)
CC(=O)OC1CC2(C)C(CC(O)C3C4(C)CCC(O)C(C)C4CCC32C)/C1=C(\CCC=C(C)C)C(=O)[O-].[Na+] (stereo unspecified) [Fusidate Sodium],0.953,1.01,0.986,0.967
CCN1CCCC1CNC(=O)c1cc(S(N)(=O)=O)ccc1OC (stereo unspecified) [Sulpiride],0.835,1.28,0.776,0.74
CN(CCO)CC(O)Cn1cnc2c1c(=O)n(C)c(=O)n2C.O=C(O)c1cccnc1 (stereo unspecified) [Xanthinol Nicotinate],0.919,1.23,0.762,0.775
O=C(O)CCCCC1SCC2NC(=O)NC21 (stereo unspecified) [Biotin (Vitamin B7)],1.32,1.25,1.23,1.18
O=c1cc(-c2ccc(O)c(O)c2)oc2cc(O)c(C3OC(CO)C(O)C(O)C3O)c(O)c12 (stereo unspecified) [Homoorientin],0.76,0.78,0.596,0.616
Oc1cccc(O)c1O [Pyrogallol],0.722,0.516,0.606,0.622
Nc1ncnc2nc[nH]c12.Nc1ncnc2nc[nH]c12.O=S(=O)(O)O [Adenine sulfate],1.13,0.832,1.12,0.786
CCCCc1nc(C)c(CC(=S)N(C)C)c(=O)n1Cc1ccc(-c2ccccc2-c2nnn[nH]2)cc1 [Fimasartan],0.821,0.922,0.809,0.819
CC(C)NCC(O)COc1ccc(CCOCC2CC2)cc1 (stereo unspecified) [Betaxolol],0.654,0.882,0.763,0.938
C1CNCCN1 [Piperazine],0.758,0.857,0.862,0.801
C=CC1=C(C(=O)O)N2C(=O)C(NC(=O)/C(=N\O)c3csc(N)n3)C2SC1 (stereo unspecified) [Cefdinir],0.532,1.02,0.564,0.751
CCCCC(=O)N(Cc1ccc(-c2ccccc2-c2nnn[nH]2)cc1)C(C(=O)O)C(C)C.CCOC(=O)C(C)CC(Cc1ccc(-c2ccccc2)cc1)NC(=O)CCC(=O)O.[Na+].[Na+].[Na+] (stereo unspecified) [Sacubitril/valsartan (LCZ696)],0.742,1.01,0.48,0.385
NC(=O)c1cn(Cc2c(F)cccc2F)nn1 [Rufinamide],0.634,0.969,0.686,0.904
CC(=O)SCC(Cc1ccccc1)C(=O)NCC(=O)OCc1ccccc1 (stereo unspecified) [Racecadotril],0.758,0.996,0.704,0.788
Cc1ccc(C2OC(CO)C(O)C(O)C2O)cc1Cc1ccc(-c2ccc(F)cc2)s1 (stereo unspecified) [Canagliflozin],0.995,0.692,0.821,0.8
CCC1(c2cnc[nH]2)Cc2ccccc2C1 [Atipamezole],0.792,0.98,0.507,0.468
O=C([O-])CN(CCN(CC(=O)[O-])CC(=O)O)CC(=O)[O-].[Na+].[Na+].[Na+] [Edetate Trisodium],1.1,0.586,1.24,0.842
CNC1C(=O)NC2Cc3ccc(cc3)Oc3cc4cc(c3OC3OC(C(=O)O)C(O)C(O)C3NC(=O)CCCCCCCCC(C)C)Oc3ccc(cc3Cl)C(O)C3NC(=O)C(NC(=O)C4NC(=O)C(NC2=O)c2cc(cc(O)c2Cl)Oc2ccc1cc2O)c1ccc(O)c(c1)-c1c(OC2OC(CO)C(O)C(O)C2O)cc(O)cc1C(C(=O)NCCCN(C)C)NC3=O (stereo unspecified) [Dalbavancin],0.889,1.09,0.91,0.974
CN(C)c1ccc(C(=C2C=CC(=[N+](C)C)C=C2)c2ccc(N(C)C)cc2)cc1.[Cl-] [Crystal Violet],1.17,2.02,0.112,0.755
O=C(O)[C@@H]1C[C@@H](O)CN1 [L-Hydroxyproline],1.36,0.673,1.41,0.645
COCCCOc1cc(CC(CC(N)C(O)CC(C(=O)NCC(C)(C)C(N)=O)C(C)C)C(C)C)ccc1OC.COCCCOc1cc(CC(CC(N)C(O)CC(C(=O)NCC(C)(C)C(N)=O)C(C)C)C(C)C)ccc1OC.O=C(O)/C=C/C(=O)O (stereo unspecified) [Aliskiren Hemifumarate],1.03,1.07,1.06,0.865
COc1cc(C(=O)NCc2ccc(OCCN(C)C)cc2)cc(OC)c1OC.Cl [Tribenzagan Hydrochloride],0.973,0.826,0.956,0.476
CCCNC(C)C(=O)Nc1c(C)csc1C(=O)OC.Cl (stereo unspecified) [Articaine HCl],0.497,0.683,0.588,0.727
